# Measured values published in PubChem BioAssay AID2100 (National Center for Advancing Translational Sciences (NCATS), 2009).
# Hit rate of the full screen: of about 300,000 compounds, about 1,200 (0.4%) were called active. Inconclusive results, whose numbers are uncertain, are shown with a selection of clear calls. Calls come from the whole dose curve; as a rule, active = well fitted inhibition curve with a large enough effect; inconclusive = small, poorly fitted or top-dose-only effect, or another doubt; inactive = no such curve, though single readings can be large or run the other way. Potencies of inconclusive entries are doubtful fits and often do not repeat.
# Molecular target: Lysosomal alpha-glucosidase (Homo sapiens) (UniProt P10253)
# Assay: qHTS Assay for Inhibitors and Activators of Human alpha-Glucosidase Cleavage of Glycogen;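 for activity change, negative = inhibition: 0% = full enzyme reaction and -100% = no-enzyme basal signal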
# Conditions: recombinant GAA, glycogen substrate, Amplex Red glucose oxidase fluorescence; activity change, negative = inhibition: at 76.4 µM (top of the series) unless noted
# How it was run: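 Recombinant enzyme (4 nM final) with compounds titrated up to 77 uM and bovine liver glycogen (30 ug) in citrate pH 5.0, 0.01% Tween-20, 37 C 40 min. Released glucose detected by Amplex Red/glucose oxidase (Ex 573/Em 610); AC50 from Hill fits.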
# Potency is the fitted concentration of half-maximal effect.
Compound,Potency,"activity change, negative = inhibition"
Oc1c(Cl)cc(Cl)cc1C=Nc1cc(C(F)(F)F)ccc1N1CCc2ccccc2C1,"inconclusive: 50.1 µM [activator, single point]",–
NC(=S)Nc1cccc2cnccc12,–,inactive: 0.139%
COc1cc2c(=O)c(S(=O)(=O)c3ccc(C(C)C)cc3)cn(Cc3ccccc3C)c2cc1OC,"inconclusive: 11.2 µM [inhibitor, partial curve]",–
O=C(c1ccccc1)c1ccc(OCCCN2CCCC2)cc1,–,inactive: -1.97%
Cc1[nH]c(=S)sc1Cc1ccc(F)cc1,"inconclusive: 19.8 µM [inhibitor, partial curve]",–
CC(Nc1ccc(Cl)cc1)C(=O)NN (configuration not stated),"inconclusive: 35.5 µM [inhibitor, single point]",–
CC(C)C(=O)Nc1cccc(NC(=S)NC(=O)c2ccc3c(c2)OCO3)c1,–,inactive: 0.107% [at 76.3 µM]
CCOC(=O)C(C)Oc1cccc2c(=O)n(CC(=O)Nc3cccc(OC)c3)ccc12 (configuration not stated),–,inactive: -4.25%
Cc1cc(C)n(-c2cc(O)c(-n3nc(C)cc3C)cc2O)n1,"inconclusive: 9.92 µM [inhibitor, partial curve]",–
O=C1Cc2cc(S(=O)(=O)N3CCN(c4ccc([N+](=O)[O-])cc4)CC3)ccc2N1,active: 8.23 µM,–
Oc1c(Br)cc(Br)cc1C=Nc1ccc2c(c1)OCCO2,"inconclusive: 35.5 µM [inhibitor, single point]",–
CCOc1cc(/C=C2\NC(=S)N(c3c(C)n(C)n(-c4ccccc4)c3=O)C2=O)ccc1O,"inconclusive: 7.03 µM [inhibitor, full curve]",–
C/C=C/C=N/Nc1nc(C)cc(=O)[nH]1,"inconclusive: 50.1 µM [inhibitor, partial curve]",–
CN1CC(=O)N/C1=N\C(=O)Nc1ccc(O)cc1,"inconclusive: 17.8 µM [inhibitor, partial curve]",–
Cn1c(=O)c2c(nc(N/N=C/c3cccnc3)n2Cc2ccccc2)n(C)c1=O,"inconclusive: 20 µM [inhibitor, partial curve]",–
COc1ccc(NC(=O)Cn2c(=O)n(-c3cccc(C)c3)c(=O)c3c2c2cc(C)ccc2n3C)cc1Cl,–,inactive: -5.5% [at 76.3 µM]
CCOc1c(Br)cc(CNc2ccc(N3CCN(C(C)=O)CC3)cc2)cc1OC,active: 31.6 µM,–
FC(F)(F)c1cccc(NC(=S)NNC(=S)Nc2cccc(C(F)(F)F)c2)c1,active: 8.91 µM,–
CCn1c(CNC(=O)c2ccc(OC)cc2)nnc1SCC(=O)Nc1cccc(C)c1C,–,inactive: -2.26% [at 76.3 µM]
Cc1cc(C(=O)NNc2ccc(Cl)cc2)no1,"inconclusive: 10 µM [inhibitor, full curve]",–
COc1ccc(-c2csc(CCN3N=C(C)CC3=O)n2)cc1,"inconclusive: 15.8 µM [inhibitor, partial curve]",–
CC(=O)Nc1cnc2ccccc2n1,–,inactive: -1.35%
Cc1c(NC(=O)OCCNC(=O)Nc2ccccc2)sc(=S)n1C,"inconclusive: 35.5 µM [inhibitor, partial curve]",–
COc1cc(C2Nc3ccc4ncccc4c3C3=C2C(=O)CC(C)(C)C3)cc(OC)c1O (configuration not stated),active: 24.9 µM,–

Compound,Potency,"activity change, negative = inhibition"
Cc1nnc(C)n1/N=C/c1cc(Br)ccc1O,"inconclusive: 9.92 µM [inhibitor, single point]",–
CC(=O)N1CCC2(CC1)C/C(=N\NC(=S)Nc1ccc(C)cc1)c1cc(O)ccc1O2,"inconclusive: 20 µM [inhibitor, partial curve]",–
CC(C)CC(=O)NC(NC(=S)Nc1sc2c(c1C#N)CCCC2)C(Cl)(Cl)Cl (configuration not stated),active: 28.2 µM,–
COC(=O)C(N)Cc1ccc(O)c(O)c1 (configuration not stated),active: 3.14 µM,–
CSc1ccccc1NC(=S)N/N=C/c1cccn1Cc1ccc(F)cc1,"inconclusive: 22.4 µM [inhibitor, partial curve]",–
Oc1ccc(-c2nc3ncccn3c2Nc2ccc3c(c2)OCCO3)cc1,active: 25.1 µM,–
CCOC(=O)C(=CNNc1c(C)csc1C(=O)OC)C(=O)OCC,"inconclusive: 14 µM [inhibitor, partial curve]",–
C=CCNc1nc(-c2cccs2)c(CC(=O)O)s1,"inconclusive: 56.2 µM [inhibitor, single point]",–
O=C1CCC/C(=N/NC(=O)c2cc(NS(=O)(=O)c3cccs3)cc(NS(=O)(=O)c3cccs3)c2)C1,"inconclusive: 14.1 µM [inhibitor, partial curve]",–
COc1ccc(Br)cc1CNC(=O)Nc1cccs1,"inconclusive: 7.88 µM [inhibitor, partial curve]",–
COc1cc(-c2nc3sccn3c2Nc2cccc(C)c2)ccc1O,"inconclusive: 28.2 µM [inhibitor, partial curve]",–
N#C/C(=C\c1ccc(O)c(O)c1)S(=O)(=O)c1ccccc1,active: 7.08 µM,–
N#CC12COC3(CCCCC3C1(C#N)C#N)OC2=N (configuration not stated),–,inactive: 3.35%
Brc1ccccc1C1Nc2cccc3cccc(c23)N1,"inconclusive: 11.2 µM [inhibitor, single point]",–
CN(C)S(=O)(=O)c1ccc(-c2csc(N/N=C/c3ccc(O)cc3)n2)cc1,"inconclusive: 35.5 µM [inhibitor, partial curve]",–
Cc1cc(=O)[nH]c(SCC(=O)N2CCN(c3ccccc3)CC2)n1,"inconclusive: 28.2 µM [inhibitor, partial curve]",–
CCOC(=O)Cc1csc(N/N=C/c2ccc(Cl)cc2)n1,"inconclusive: 11.1 µM [inhibitor, partial curve]",–
COc1ccc(-c2cn3c(n2)sc2cc(C(=O)NCc4ccccc4)ccc23)cc1,–,inactive: -12.6% [at 76.3 µM]
CCCCC1CC(C)(C(=O)CSc2nc3ccccc3s2)OC1=O (configuration not stated),"inconclusive: 44.7 µM [inhibitor, single point]",–
COc1ccccc1NC(=S)N1CCCc2ccccc21,"inconclusive: 14.1 µM [inhibitor, partial curve]",–
CC1=C(C(=O)Nc2ccccc2)C(c2ccccc2[N+](=O)[O-])NC(=O)N1 (configuration not stated),–,inactive: -6.02%
Cc1cccc(-c2cc3nc4c(c(NCc5ccco5)n3n2)CCCC4)c1,"inconclusive: 22.4 µM [inhibitor, partial curve]",–
CC1CC(CC(C)C(=O)NC(=S)Nc2ccc(S(N)(=O)=O)cc2)C(=O)O1 (configuration not stated),"inconclusive: 39.5 µM [inhibitor, single point]",–
CC(=O)c1c(C)oc2ccc(N(C(=O)Oc3ccccc3)S(=O)(=O)c3ccc(Br)cc3)cc12,–,inactive: -11.2% [at 76.3 µM]

Compound,Potency,"activity change, negative = inhibition"
Cc1ccc(Cn2cc(CCC(=O)NC3CCCCC3)c3ccccc32)cc1,–,inactive: 2.2% [at 76.3 µM]
OCC(O)/C=N/Nc1nc(Nc2ccccc2)nc(Nc2ccccc2)n1 (configuration not stated),"inconclusive: 3.98 µM [inhibitor, single point]",–
N#C/C(=N\Nc1ccc(Cl)cc1)C(N)=S,"inconclusive: 28.2 µM [inhibitor, partial curve]",–
Cc1c(N=C/C=C/c2ccccc2)c(=O)n(-c2ccccc2)n1C,"inconclusive: 31.6 µM [inhibitor, single point]",–
CC(CCc1ccccc1)NC(=O)CN1CCN(c2ccc(O)cc2)CC1 (configuration not stated),active: 4.43 µM,–
O=c1oc2ccc(Br)cc2cc1S(=O)(=O)c1ccc(F)cc1,–,inactive: -5.2%
Cc1ccc(C)c(NC(=O)CCN2CCc3ccccc3C2)c1,"inconclusive: 50.1 µM [activator, single point]",–
COC(=O)CN1C(=O)C2(C(C#N)=C(N)Oc3c2c(C)nn3-c2ccccc2)c2ccccc21 (configuration not stated),–,inactive: -10.5%
CCOC(=O)C1=C(CC)Nc2ccccc2N=C1N,"inconclusive: 11.2 µM [inhibitor, full curve, poor fit]",–
Cc1ccc(C2N(c3cccc(Cl)c3)C(=O)N3CCCN23)cc1 (configuration not stated),"inconclusive: 14.1 µM [inhibitor, partial curve]",–
Cc1ccc(N/N=C/c2c(O)cc(C)oc2=O)cc1,"inconclusive: 25.1 µM [inhibitor, partial curve]",–
COc1cc(CNc2ccc(N3CCN(C(C)=O)CC3)cc2)ccc1OCc1ccccc1,"inconclusive: 14 µM [inhibitor, partial curve]",–
Cc1ccc(NC(=O)c2ccc3nc[nH]c3c2)c(O)c1,"inconclusive: 8.91 µM [inhibitor, partial curve]",–
CCOC(=O)CNc1c(-c2ccc(O)cc2)nc2ccc(Cl)cn12,active: 22.4 µM,–
COc1ccc2c(C(=O)CN3CCC(C)CC3)c[nH]c2c1,"inconclusive: 28 µM [activator, single point]",–
O=C1CC(SCc2nc3ccccc3[nH]2)C(=O)N1c1cccc(F)c1 (configuration not stated),"inconclusive: 63.1 µM [inhibitor, partial curve, poor fit]",–
CC1=C(C(=O)Nc2ccccn2)C(c2ccc(N(C)C)cc2)n2ncnc2N1 (configuration not stated),"inconclusive: 28 µM [inhibitor, single point]",–
COc1ccc(CC(=O)c2c(O)cc(O)cc2O)cc1OC,"inconclusive: 39.5 µM [inhibitor, single point]",–
O=C(NC(=S)Nc1ccc(CN2CCOCC2)cc1)c1ccc([N+](=O)[O-])cc1Cl,"inconclusive: 50.1 µM [inhibitor, single point]",–
CC(=O)c1cccc(NC(=O)CC2S/C(=N/N=C3CCCCCC3)NC2=O)c1 (configuration not stated),"inconclusive: 25.1 µM [inhibitor, partial curve]",–
C=CCNC(=S)NNc1nc(Nc2ccccc2)nc(N2CCCCC2)n1,active: 15.7 µM,–
Cc1onc(-c2ccccc2)c1C(=O)NCc1ccc2c(c1)OCO2,"inconclusive: 11.1 µM [inhibitor, full curve, poor fit]",–
O=c1c2ccccc2[nH]c2ccc(O)cc12,active: 20 µM,–
Cc1ccccc1-c1ncnn1-c1sc2c(c1C#N)CCCCC2,"inconclusive: 31.6 µM [inhibitor, partial curve]",–
